Test system: A549 orthotopic lung cancer
Experiment: Orthotopic lung cancer model
Details: CDDP alone, 37 days, compared to control group

[NH2][Pt]([NH2])([Cl])[Cl] [CDDP, Cisplatin]
Lung and mediastinal node luciferase levels ex vivo: significantly reduced lung and mediastinal node luciferase levels

Source: US12728139B2, “Methods of preparing purified atomic quantum clusters” (NANOGAP SUB-NM-POWDER, S.A., priority 2018, dated 2026)
